PubChem BioAssay AID686978 (National Center for Advancing Translational Sciences (NCATS), 2013)
Several values for one entry are separate records, joined by “and”; a condition that tells them apart may be missing. Equal values may be shown once. Hit rate of the full screen: of about 420,000 compounds, about 64,000 (15%) were called active. This list was built around the results that the source calls inconclusive (neither active nor inactive); the mix of calls is not that of the screen. The call rests on the fitted dose curve; in most records, active means well fitted inhibition curve with a large enough effect; inconclusive means small, poorly fitted or top-dose-only effect; inactive means flat fitted curve, though single readings scatter. Potencies beside an inconclusive call are fits to weak or partial responses and may not hold up.

Test: qHTS for Inhibitors of human tyrosyl-DNA phosphodiesterase 1 (TDP1): qHTS in cells in absence of CPT; further: nearly all actives have a fitted effect of over 55% in size
Conditions: DT40 Tdp1-/- hTDP1 cells, no CPT, ATP luminescence, 48 h; activity change, negative = growth inhibition: at 46.2 µM (top of the series)
Outline: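 Luminescent ATP content (CellTiter-Glo) served as the growth readout. Knockout chicken DT40 cells expressing human TDP1 were exposed to compounds without camptothecin for a minimum 48 hr at 37 °C.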
On the % scale 0 is the no-effect control and ±100 the full control effect; potency means the concentration at half of the fitted maximal effect; tags describe the fitted curve by direction and shape.

SMILES	Potency	activity change, negative = growth inhibition
COCCOC(=O)C1=C(C)Nc2nc(C)nn2C1c1ccc(F)cc1 (stereo not given)	inactive	
O=C(Nc1nc2c(F)cc(F)cc2s1)c1ccc([N+](=O)[O-])o1	active: 10.3 µM	
C#CCN(C[C@H]1[C@H](OC(=O)NC2CC2)[C@H](OC(=O)NC2CC2)C[C@@H](C(=O)OC)[C@H]1C(=O)OC)S(=O)(=O)c1ccc(C)cc1	inconclusive: 29.1 µM [inhibitor, single point]	
O=C(OC(C(=O)NCC1CCCO1)c1ccc(F)cc1)c1cccs1 (stereo not given)		inactive: 1.02%
Cn1nc(C(F)(F)F)c(-c2ccc(Br)cc2)c1NC(=O)CSCC(=O)O		inactive: 2.1%
c1ccc(OCCCN2CCCC2)cc1		inactive: -2.21%
CCOc1ccc(Cl)cc1-c1cc(C(=O)NCc2cccs2)[nH]n1	inconclusive: 18.4 µM [inhibitor, single point]	
COc1ccc(NC(=S)Nc2ccccn2)cc1	inconclusive: 20.6 µM [inhibitor, single point]	
CCOc1ccc(NC(=O)CCc2nnc3ccc(N4CCC(C)CC4)nn23)cc1	inconclusive: 16.4 µM [inhibitor, single point]	
CC(NC(=O)CCNC(=O)N1CCn2c1nc1ccccc12)c1ccccc1 (stereo not given)		inconclusive: -1.2% [inhibitor]
Cc1nn(-c2cc(C(F)(F)F)ccc2Cl)c2nc(C(Cl)(Cl)Cl)[nH]c(=O)c12		inactive: -19.6%
Cc1ccnc(NS(=O)(=O)c2ccc(NC(=O)c3cc(-c4ccccc4)nc4ccccc34)cc2)n1	inconclusive: 32.6 µM [inhibitor, single point]	
CCOC(=O)N1CCN(Cc2nc3cc(NC(=O)CC(C)C)ccc3n2CC)CC1	active: 9.2 µM	
CCN(CC)C(=O)Cn1c(=O)n(CCCCCC(=O)Nc2ccccc2)c(=O)c2sccc21	inconclusive: 20.6 µM [inhibitor, partial curve] and inconclusive: 20.6 µM [inhibitor, single point]	
COc1ccc2cc(C(=O)C3CCCN(C(=O)c4ccnn4C)C3)ccc2c1 (stereo not given)	active: 14.6 µM	
COc1ccccc1C(=O)NCC(c1cccs1)N1CCc2ccccc21 (stereo not given)	active: 18.4 µM	
C=C(C)c1cccc(C(C)(C)NC(=O)Nc2ccc(C(C)=O)cc2)c1	inconclusive: 7.31 µM [inhibitor, partial curve]	
CC1CCCCN1C(=O)c1ccc(C(=O)c2ccccc2)cc1 (stereo not given)	active: 14.6 µM	
COc1ccc(Cl)cc1CC1(C)C(=O)Nc2ccc(-c3ccccc3OC)cc21 (stereo not given)	active: 11.6 µM	
Fc1ccc(-c2nc3ccc(Br)cn3c2Cc2ccccc2)cc1	inconclusive: 29.1 µM [inhibitor, single point]	
CN(C)/C=C1\C(=O)NN=C1C(F)(F)F		inactive: 6.33%
CC(NC(=O)Cc1ccc(F)cc1)c1ccc(F)cc1 (stereo not given)		inactive: -28.3%
CC(C)CNC(=O)c1cccc(NC(=O)Cc2ccc(Br)cc2)c1	inconclusive: 18.4 µM [inhibitor, single point]	
Cc1ccc(CNC(=O)C2CC(c3ccccc3C(F)(F)F)=NO2)o1 (stereo not given)	inconclusive: 16.4 µM [inhibitor, partial curve]	

SMILES	Potency	activity change, negative = growth inhibition
CCOC(=O)C(NC(=O)CC)C(O)c1cccc([N+](=O)[O-])c1 (stereo not given)		inactive: -7.12%
Cn1c(=O)c(-c2cc(F)cc(F)c2)nc2cnc(N3CCNCC3)nc21	inconclusive: 29.1 µM [inhibitor, single point]	
COCCCn1c(SCc2nnc(-c3ccccc3)o2)nc2sc3c(c2c1=O)CCC3	inconclusive: 23.1 µM [inhibitor, single point]	
O=C(O)c1ccc(Cl)c(S(=O)(=O)Nc2ccccc2N2CCOCC2)c1		inactive: 0.0895%
Cc1cccn2c(=O)c3cc(C(=O)NCc4ccccc4)c(=N)n(CCCN4CCOCC4)c3nc12	inconclusive: 29.1 µM [inhibitor, single point]	
COc1ccc2c(c1)OC[C@H]1[C@H]2N2C(=O)CN(CCc3c[nH]c4ccccc34)C(=O)[C@@]2(C)[C@H]1c1ccccc1	inconclusive: 20.6 µM [inhibitor, single point]	
O=C1CCCc2ccccc2N1Cc1c(Cl)cccc1Cl	inconclusive: 29.1 µM [inhibitor, single point]	
O=C(NCc1ccccc1F)c1cc2ccccn2n1	inconclusive: 0.651 µM [inhibitor, full curve]	
CCOc1cccc(OCCOCCN(C)Cc2ccccc2)c1	inconclusive: 29.1 µM [inhibitor, single point]	
COc1ccccc1NC(=O)COC(=O)c1ccc2c(c1)OCCO2	inconclusive: 11.6 µM [inhibitor, partial curve, poor fit]	
Cc1ccc(C(=O)Nc2ccc(Br)c(C(F)(F)F)c2)cc1	active: 23.1 µM	
Cc1cccc(-n2ncc3c(NCc4cccnc4)ncnc32)c1	inconclusive: 29.1 µM [inhibitor, single point]	
CCOC(=O)N1CCN(C(=O)c2cn(C)c3ccc(S(=O)(=O)N4CCC(C)CC4)cc3c2=O)CC1		inactive: -16.3%
O=C1c2cccc3cccc(c23)C(=O)N1Cc1cccnc1		inconclusive: -31.4% [inhibitor]
O=[N+]([O-])c1cccc2c[nH]nc12		inactive: -13.5%
CCC1(C)Cc2c(sc3nc4n(c(=O)c23)CCS4)CO1 (stereo not given)	inconclusive: 29.1 µM [inhibitor, single point]	
OC(c1ccccc1)c1nc(-c2cncnc2)cs1 (stereo not given)		inactive: -10.1%
O=C(OCC(=O)N1CCN(c2ccccc2)CC1)c1cc(Cl)ccc1[N+](=O)[O-]		inactive: -11.3%
C=CCN1C(=O)C2(NC(=O)c3ccccc3N2)c2ccccc21 (stereo not given)	inconclusive: 23.1 µM [inhibitor, single point]	
CC1CCc2[nH]c3ccc(C(=O)NCC4CCCO4)cc3c2C1 (stereo not given)	inconclusive: 18.4 µM [inhibitor, partial curve]	
Cc1nnc2n1N=C(c1ccc(OC(F)F)cc1)C(C)S2 (stereo not given)		inconclusive: -30.9% [inhibitor]
CNc1nc(SCC(=O)Nc2ccc(Cl)c(Cl)c2)nc(N2CCOCC2)n1	inconclusive: 6.51 µM [inhibitor, single point]	
O=C(COC(=O)c1ccc2c(c1)OCCO2)Nc1cccc(S(=O)(=O)N2CCOCC2)c1	inconclusive: 29.1 µM [inhibitor, single point]	
CC(C)=CCC/C(C)=C/CC/C(C)=C/CCC1(C)CCc2cc(O)ccc2O1 (stereo not given)	inconclusive: 20 µM [inhibitor, single point]	

SMILES	Potency	activity change, negative = growth inhibition
Cc1c(NC(=O)COC(=O)/C=C/c2ccccc2Br)c(=O)n(-c2ccccc2)n1C		inactive: 7.26%
CCC(C(=O)NCc1ccc(F)cc1)N(Cc1cccs1)C(=O)c1snc(C(N)=O)c1N (stereo not given)		inactive: -21.9%
CCc1c(C)nc2ncnn2c1N1CCCC(C(=O)NCCc2ccccc2)C1 (stereo not given)	active: 20.6 µM	
Cc1ccc2oc(=O)c3cc(C(=O)NCc4ccc(Cl)cc4)sc3c2c1	inconclusive: 18.4 µM [inhibitor, partial curve]	
O=C(Nc1nc2ccccc2n1CCN1CCCCC1)C1CCCCC1	inconclusive: 18.4 µM [inhibitor, partial curve, poor fit]	
CCOc1ccc(NC(=S)N2CCCN(Cc3cc(C)ccc3C)C2)cc1	inconclusive: 20.6 µM [inhibitor, single point]	
Cc1ccc2cccc(NC(=S)NC(=O)c3ccccc3)c2n1	inconclusive: 23.1 µM [inhibitor, single point]	
CCSc1nc2c(c(=O)[nH]c(=O)n2C)n1C/C=C(/C)Cl	inconclusive: 25.9 µM [inhibitor, single point]	
COC(=O)N(NC(=O)C(O)(c1ccccc1)c1ccccc1)c1ccc(C)cc1	inconclusive: 23.1 µM [inhibitor, single point]	
O=C(NC1CCCC1)C(c1ccc(O)cc1)N(CC1CCCO1)C(=O)C1COc2ccccc2O1 (stereo not given)	inconclusive: 29.1 µM [inhibitor, single point]	
CCOc1ccc(NC(=S)NCCCc2ccccc2)cc1	inconclusive: 25.9 µM [inhibitor, partial curve]	
COc1ccc(/C(=C/Nc2cccc(Br)c2)C(C)=O)cc1OC	inconclusive: 23.1 µM [inhibitor, single point]	
COc1ccc(CCNc2oc(COc3ccc(F)cc3)nc2C#N)cc1	inconclusive: 29.1 µM [inhibitor, single point]	
CC1CC(C)(C)CC2(C1)NC(=O)N(CC(=O)N1CCN(S(=O)(=O)c3cccc(F)c3)CC1)C2=O (stereo not given)	inconclusive: 13 µM [inhibitor, partial curve]	
Cc1ccc(CS(=O)Cc2ccc(C(=O)N3CCN(C4CCCCC4)CC3)o2)cc1 (stereo not given)		inactive: 2.56%
O=C(c1ccc(Br)cc1)N(Cc1ccco1)C1CCS(=O)(=O)C1 (stereo not given)		inactive: 21.8%
COCCNC(=O)Cn1cnc([N+](=O)[O-])n1	inconclusive: 29.1 µM [inhibitor, single point]	
CCC(C)N1C(=O)S/C(=C/c2ccc3c(c2)n(C)c(=O)n3C)C1=O (stereo not given)	active: 23.1 µM	
Cn1nnnc1SCC(=O)N1CCN(c2ccccc2)CC1	inconclusive: 5.17 µM [inhibitor, partial curve]	
COc1ccc(-c2noc(CN3CCCC(OCc4ccccn4)C3)n2)cc1 (stereo not given)	inconclusive: 29.1 µM [inhibitor, single point]	
CCN(C[C@H]1N[C@@](Cc2ccccc2)(C(=O)OC)[C@H]2C(=O)N(Cc3ccccc3)C(=O)[C@@H]12)S(=O)(=O)c1ccc(OC(F)(F)F)cc1	inconclusive: 23.1 µM [inhibitor, single point]	
CC(=O)C1=C(C)OC(N)=C(C#N)C1c1cccc([N+](=O)[O-])c1 (stereo not given)	inconclusive: 16.4 µM [inhibitor, single point]	
